# According to a collection of fitness landscapes (doi:10.1016/j.celrep.2020.107928):
# The full ranking holds about 81,000 sequences; the median of “one-hybrid fitness for binding NBS DNA” is about -0.1, and the highest 2% start at about 0.36. This is one part of the list.
# B1: Caulobacter ParB omega fusion; a variant is named by its letters at X, in order, B8GW30 (parent)
# chain: MESVVVGEPGMSEGRRGLGRGLSALLGEVDAAPAQAPGEQLGGSREAPIEILQRNPDQPRRTFREEDLEDLSNSIREKGVLQPILVRPSPDTAGEYQIVAGERAWRAAQRAGLKTVPIMVRELDDLAVLEIGIIENVQRADLNVLEEALSYKVLMEKFERTQENIAQTIGKSXSHVANXMRLLXLPDEVQSYLVSGELTAXHARAIAAAADPVALAKQIIEGGLSVRETEALARKAPNLSAGKSKGGRPPRVKDTDTQALESDLSSVLGLDVSIDHRGSTGTLTITYATLEQLDDLCNRLTRGI
# Variants of: B1
# Assay: one-hybrid fitness for binding NBS DNA (the Noc-binding site; scaled: cognate 1, non-cognate 0); higher = stronger binding
# Conditions: with NBS DNA site
# Outline: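 Fitness here means the log change in variant-to-wild-type read ratio between plasmids sequenced before and after selection. That scale was set so cognate equals 1 and non-cognate equals 0. The selection was a bacterial one-hybrid screen of Caulobacter ParB libraries, four specificity codons randomised, in E. coli USO carrying a HIS3 reporter with the site 19 bp from the promoter, grown 48 hours at 37°C on M9-minus-histidine with 0.1 mM IPTG and 5 mM 3-AT.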
row,Variant,one-hybrid fitness for binding NBS DNA
1,IRST,0.268
2,VSHI,≤ 0.2
3,PEFR,≤ 0.2
4,QWYV,≤ 0.2
5,CFVC,≤ 0.2
6,HWRF,≤ 0.2
7,YLPL,≤ 0.2
8,EALS,≤ 0.2
9,LSTG,≤ 0.2
10,ILTK,≤ 0.2
11,ADMR,≤ 0.2
12,MCRN,≤ 0.2
13,AINS,≤ 0.2
14,CGRK,≤ 0.2
15,HDTC,≤ 0.2
16,DRLT,≤ 0.2
17,RKAP,≤ 0.2
18,KEQC,≤ 0.2
19,GYWR,≤ 0.2
20,AVES,≤ 0.2
21,ATNW,≤ 0.2
22,NNNI,≤ 0.2
23,NLLS,≤ 0.2
24,ENHY,≤ 0.2
25,LVCG,≤ 0.2

row,Variant,one-hybrid fitness for binding NBS DNA
1,YKPG,≤ 0.2
2,SYIW,≤ 0.2
3,QQER,0.426
4,TVYY,≤ 0.2
5,KVFL,≤ 0.2
6,LLYN,≤ 0.2
7,WDHW,≤ 0.2
8,AQIS,≤ 0.2
9,LVKS,≤ 0.2
10,VFPV,≤ 0.2
11,RNKI,≤ 0.2
12,NMDR,≤ 0.2
13,LRSC,≤ 0.2
14,GPTV,≤ 0.2
15,HFRL,≤ 0.2
16,SVVI,≤ 0.2
17,NPTR,≤ 0.2
18,YKQG,≤ 0.2
19,EMRM,≤ 0.2
20,TVNF,≤ 0.2
21,ANSE,≤ 0.2
22,IHVK,≤ 0.2
23,KASG,≤ 0.2
24,CKDC,≤ 0.2
25,RWLL,≤ 0.2

row,Variant,one-hybrid fitness for binding NBS DNA
1,APCT,≤ 0.2
2,FLHS,≤ 0.2
3,TKHD,≤ 0.2
4,PLLN,≤ 0.2
5,TAKL,≤ 0.2
6,TCEM,≤ 0.2
7,RPNV,≤ 0.2
8,NANC,≤ 0.2
9,CHIT,≤ 0.2
10,SDKF,≤ 0.2
11,YSNV,≤ 0.2
12,VADD,≤ 0.2
13,HMAR,≤ 0.2
14,LIDS,≤ 0.2
15,RWGY,≤ 0.2
16,YYYV,≤ 0.2
17,EHTC,≤ 0.2
18,SYFF,≤ 0.2
19,QMDM,≤ 0.2
20,RVNL,≤ 0.2
21,YDTF,≤ 0.2
22,WPGR,≤ 0.2
23,KNPM,≤ 0.2
24,SAKW,≤ 0.2
25,QTTH,0.385

row,Variant,one-hybrid fitness for binding NBS DNA
1,RVFN,≤ 0.2
2,EFTA,≤ 0.2
3,MPMV,≤ 0.2
4,QEPH,≤ 0.2
5,SSLV,≤ 0.2
6,HYVI,≤ 0.2
7,MRRC,≤ 0.2
8,QIKV,0.267
9,SNIC,≤ 0.2
10,PDQC,≤ 0.2
11,MLGS,≤ 0.2
12,SGYG,≤ 0.2
13,ALAI,≤ 0.2
14,NTKA,≤ 0.2
15,VVCR,≤ 0.2
16,HDNS,≤ 0.2
17,PYMM,≤ 0.2
18,SSNE,≤ 0.2
19,PPFP,≤ 0.2
20,MKYC,≤ 0.2
21,GPAK,≤ 0.2
22,VPSR,≤ 0.2
23,GIPS,≤ 0.2
